According to PubChem BioAssay AID2451 (National Center for Advancing Translational Sciences (NCATS), 2010):
Several values for one entry are separate records, joined by “and”; a condition that tells them apart may be missing. Equal values may be shown once. Out of some 290,000 compounds screened, about 2,100 (0.72%) were called active. The shares of active, inactive and inconclusive entries below differ from those in the screen. Calls follow the shape of the dose curve; as a rule, active = well fitted inhibition curve with a large enough effect; inconclusive = small, poorly fitted or top-dose-only effect, or effect the other way; inactive = flat fitted curve, though single readings scatter. Potencies of inconclusive entries are doubtful fits and often do not repeat. A structure can be active in one record and inactive in another.

Biological target: Fructose-bisphosphate aldolase (Giardia intestinalis (strain ATCC 50803 / WB clone C6)) (UniProt A8B2U2)
Assay: qHTS Assay for Inhibitors of Fructose-1,6-bisphosphate Aldolase from Giardia Lamblia; also: nearly all actives have a fitted effect of over 55% in size
Conditions: purified Giardia FBPA; activity, negative = inhibition: at 59.6 µM (top of the series) unless noted
In short: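 40 nM FBPA preincubated 10 min at RT with compound (up to 57.5 uM final), then substrate plus GAPDH/TPI/NAD/arsenate coupling and diaphorase/resazurin added. Fluorescence read after 20 min at RT, 525/598 nm.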
% is scaled to controls: 0 for no effect and ±100 for the full control effect; potency is read from the fitted curve at half-maximal effect; tags tell the direction and shape of the fitted curve.

UniProt A8B2U2, sequence (A8B2U2 whole entry, looked up): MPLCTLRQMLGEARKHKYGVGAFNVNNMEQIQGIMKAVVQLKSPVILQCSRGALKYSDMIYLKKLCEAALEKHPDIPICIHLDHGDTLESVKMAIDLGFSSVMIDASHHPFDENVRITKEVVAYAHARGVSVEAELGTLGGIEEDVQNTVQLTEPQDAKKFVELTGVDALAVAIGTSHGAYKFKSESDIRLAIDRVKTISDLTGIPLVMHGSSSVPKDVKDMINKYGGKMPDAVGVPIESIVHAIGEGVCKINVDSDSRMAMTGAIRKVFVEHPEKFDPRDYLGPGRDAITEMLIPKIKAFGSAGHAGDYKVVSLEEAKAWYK

SMILES | activity, negative = inhibition | Potency
CCCCOc1ccccc1C1NC(=O)CCC1[N+](=O)[O-] (centres undefined) | inconclusive: 49.4% [activator] | 
O=C(CCC1CCCC1)N1CCC(N2CCCCCC2)CC1 |  | inconclusive: 22.3 µM [inhibitor, partial curve]
O=C(O)CSCCc1ccccn1 |  | inconclusive: 19.9 µM [inhibitor, single point]
O=S(=O)(Cc1ccccc1)N=Nc1c(O)[nH]c2ccc(Br)cc12 |  | inconclusive: 14.1 µM [inhibitor, partial curve]
O=C(NCC1CC1)[C@]1(C(F)(F)F)C[C@H](CCC2CCCCC2)CCCO1 |  | inactive
O=C(NC(=S)N1CCc2ccccc21)c1ccc(Br)o1 |  | inactive
COCCNC(=S)NCCCNc1nc2cc3c(cc2cc1C#N)OCO3 |  | inconclusive: 10 µM [inhibitor, partial curve]
c1ccc(-c2ccc(CN3CCSCC3)cc2)cc1 |  | inconclusive: 22.4 µM [inhibitor, single point]
O=C(O)c1ccc(Cn2c(SCc3cc(=O)n4cc(Br)ccc4n3)nc3ccsc3c2=O)cc1 |  | inconclusive: 15.8 µM [inhibitor, partial curve]
CSc1cccc(NC(C)C(=O)NCc2ccccc2)c1 (centres undefined) |  | inconclusive: 25.1 µM [inhibitor, single point]
CCCNC(=S)N1CCN(c2nc(-c3cccc(OC)c3)cs2)CC1 |  | inconclusive: 28.2 µM [inhibitor, single point]
O=C(Nc1ccc(Cc2ccncc2)cc1)c1cccc([N+](=O)[O-])c1 |  | inactive
Cc1cc(C(=O)N/N=C/c2cc([N+](=O)[O-])ccc2O)c2ccccc2n1 |  | inconclusive: 17.7 µM [activator, single point]
COc1ccc(-n2c(O)c(C=NCCN3CCN(C(C)=O)CC3)c(=O)[nH]c2=S)cc1 |  | inconclusive: 10 µM [inhibitor, partial curve]
Cc1[nH]n(-c2ccccc2)c(=S)c1C=Nc1ccc([N+](=O)[O-])cc1 |  | active: 4.46 µM
O=C(NC(=S)NNC(=O)c1ccccc1[N+](=O)[O-])c1ccccc1 |  | inconclusive: 15.8 µM [activator, partial curve]
Cc1cc(NC(=O)c2ccco2)ncc1NC(=O)Cc1ccccc1 |  | inactive
CN(C)C(=O)CSc1n[nH]c(-c2ccco2)n1 |  | active: 15.8 µM
CC1CN(c2snnc2C=C2C(=O)OC(C)(C)OC2=O)CC(C)O1 (centres undefined) |  | inconclusive: 17.7 µM [inhibitor, single point]
O=C(Nc1sc2c(c1C(=O)O)CCCCC2)c1ccccc1F |  | inconclusive: 17.7 µM [inhibitor, single point]
O=C(O)c1ncsc1-c1ccccc1 |  | inconclusive: 19.9 µM [inhibitor, partial curve]
O=C(NC(=S)Nc1cccnc1Cl)c1ccc(Cl)cc1 |  | active: 12.6 µM
COc1cccc(C(=O)CC(=O)C(=O)Nc2cc(Cl)c(OC)cc2OC)c1 |  | inconclusive: 25.1 µM [inhibitor, partial curve]
CN1CCN(CCCC(=O)c2ccc(F)cc2)CC1 |  | inactive
COc1c(O)ccc(/C=C(\C#N)c2nc3ccccc3[nH]2)c1[N+](=O)[O-] |  | inconclusive: 0.889 µM [inhibitor, full curve]

SMILES | activity, negative = inhibition | Potency
O=C(Nc1ccc(N2CCOCC2)c(Cl)c1)c1cc2ccccc2o1 |  | inconclusive: 17.7 µM [inhibitor, partial curve]
CC(C)CCC(CCN1CCOCC1)c1ccc2c(c1)OCO2 (centres undefined) |  | inconclusive: 12.6 µM [inhibitor, partial curve]
CN(C)c1ccc(-c2cncnc2Nc2ccc(F)cc2)cc1 |  | inconclusive: 15.8 µM [inhibitor, partial curve]
NC(=O)C1CCCN(CC(O)COCc2ccc(Cl)cc2)C1 (centres undefined) |  | inconclusive: 14.1 µM [inhibitor, partial curve]
COC(=O)CCC(=O)OC1(C)C(=O)C=C2C=C(C3CC3)N(Cc3ccc4c(c3)OCO4)C=C2C1=O (centres undefined) |  | inconclusive: 158 nM [inhibitor, full curve] and inconclusive: 397 nM [inhibitor, full curve]
Cc1ccc2[nH]c3c(c2c1)CN(C(=O)CN1CCN(c2cccc(C)c2C)CC1)CC3 |  | inconclusive: 14.1 µM [inhibitor, partial curve]
COCCNCC(=O)Nc1nc(C)cs1 |  | inconclusive: 7.92 µM [inhibitor, partial curve]
CCNC(=S)NNC(=O)c1cccnc1 |  | inconclusive: 7.06 µM [inhibitor, partial curve]
COc1ccccc1CNCc1cc(Br)ccc1OC |  | inconclusive: 6.29 µM [inhibitor, partial curve]
Cc1c(O)c(=O)ccn1Cc1ccccc1 |  | inconclusive: 9.98 µM [inhibitor, partial curve]
CN1CCC(c2c[nH]c3ccc(O)cc23)CC1 |  | active: 1.99 µM
O=C(CCC(=O)Nc1ccccc1Cl)N/N=C/c1ccccc1 |  | inconclusive: 3.97 µM [inhibitor, full curve]
CCOC(=O)C1=C(N)OC(CCl)=C(C#N)C1c1ccsc1 (centres undefined) |  | inactive
NC(=O)C(c1ccc(Cl)cc1)c1ccc(Sc2ccc(Cl)cc2)nn1 (centres undefined) |  | inactive
C/C(=N\OC(=O)c1ccc(Cl)cc1)c1sc(-c2ccccc2)nc1C |  | inactive
COc1ccccc1-n1c([S-])c(C(=O)Nc2ccccc2C(F)(F)F)[n+]2ccc(C(=O)NCCO)cc12 |  | inconclusive: 1.99 µM [inhibitor, partial curve]
CC(C)(C)OC(=O)[C@H](Cc1ccccc1)NC(=O)c1nc[nH]c1C(=O)NC1CCN(C(=O)OC(C)(C)C)CC1 |  | inconclusive: 15.8 µM [inhibitor, partial curve]
C/C=C/C=C\C(=O)Nc1cccc(C2=NOC3(C2)C[C@@H](C(N)=O)N(C(=O)c2cc([N+](=O)[O-])cc([N+](=O)[O-])c2)C3)c1 (some centres undefined) |  | inactive
NC1=Nc2cccc3cccc1c23 |  | inconclusive: 7.06 µM [inhibitor, full curve]
O=C(Oc1ccccc1)n1c(=S)oc2ccccc21 |  | inconclusive: 17.7 µM [inhibitor, single point]
CCCC(O)(c1ccc(Cl)cc1)C(CN1CCOCC1)c1ccc(Cl)cc1 (centres undefined) |  | inconclusive: 11.2 µM [inhibitor, single point]
Cc1cccc(OCC(=O)Nc2ccc3nc(C)sc3c2)c1 |  | inactive
Cc1cccc(OCC(O)CN2CCNCC2)c1 (centres undefined) |  | inconclusive: 28.2 µM [inhibitor, single point]
Cc1ccc(S(=O)(=O)Nc2ccc(O)c(S(=O)(=O)c3ccc(C)cc3)c2)cc1 |  | inactive
Cc1cc(O)c(C(C)C)cc1N=Cc1ccccc1O |  | active: 3.54 µM

SMILES | activity, negative = inhibition | Potency
Cc1cnc(=O)[nH]c1SCc1ccccc1F |  | inactive
O=C(Oc1c(CN2CCOCC2)cc(Cl)c2cccnc12)c1ccccc1 |  | inconclusive: 35.4 µM [inhibitor, single point]
CC(C)OP(=O)(OC(C)C)C(Nc1cccc(C(=O)O)c1)c1ccccc1 (centres undefined) |  | inactive
CC(=O)N1CCC(=NNc2ncc(C(F)(F)F)cc2Cl)CC1 |  | inconclusive: 19.9 µM [inhibitor, partial curve]
NC(=O)C1=C[C@@H](c2ccccc2)C[C@@H](OCc2ccc(CO)cc2)O1 |  | inconclusive: 3.15 µM [inhibitor, full curve]
CC(/C=N/n1c(-c2cc(C)[nH]n2)n[nH]c1=S)=C\c1ccco1 |  | active: 2.51 µM
O=c1[nH]c(=S)[nH]c(O)c1N=Nc1ccc2c(c1)OCCO2 |  | inactive
COC(=O)c1sccc1NC(=S)Nc1ccc(C)cc1 |  | inconclusive: 15.8 µM [inhibitor, single point]
CNc1ccc(Br)cc(C(=O)/C=C/c2cc(OC)ccc2OC)c1=O |  | inconclusive: 4.46 µM [inhibitor, partial curve]
CNc1c(NC(=O)COc2ccc(Cl)cc2)c(=O)oc2ccccc12 |  | inactive
Cc1c(-c2nn(C)c(=O)c3ccccc23)oc2ccc(F)cc2c1=O |  | inconclusive: 5 µM [inhibitor, partial curve]
COc1ccc2[nH]c3c(c2c1)CCN=C3C |  | inactive
[N-]=C=C1C(=O)NC(=O)C([n+]2ccc(-c3ccncc3)cc2)C1c1ccccc1C(F)(F)F (centres undefined) |  | active: 14.1 µM
COc1cc(CNc2ncc(-c3ccc(Br)cc3)n2C)cc(OC)c1OC |  | inconclusive: 25.1 µM [inhibitor, partial curve]
Nc1ccc(Cc2ccc(N)c(O)c2)cc1O |  | inconclusive: 7.06 µM [inhibitor, partial curve]
O=C(N/N=C(\Cc1ncc[nH]1)c1ccccc1)c1ccncc1 |  | inconclusive: 15.8 µM [inhibitor, single point]
C1COC(NC(C2CC2)C2CC2)=N1 |  | inactive
Cc1cc2nc3c(=O)[nH]c(=S)[nH]c3nc2cc1NC(=O)C(F)(F)F |  | inconclusive: 22.4 µM [inhibitor, partial curve]
Oc1cccc(Nc2c3ccccc3nc3ccccc23)c1 |  | inactive
CN1C(=O)C(CC(=O)N2CCN(C(c3ccccc3)c3ccccc3)CC2)N(C)C1=O (centres undefined) |  | inactive
Cc1cccc(N2CCN(S(=O)(=O)c3ccc4c(c3)NC(=O)C(C)S4)CC2)c1C (centres undefined) |  | inconclusive: 22.4 µM [activator, partial curve]
CSc1ncc(C(=O)Nc2cccc(C)c2C)c(C)n1 |  | inactive
Cc1c(C(=O)N2CCC3(CC2)OCCO3)oc2ccccc12 |  | inactive
CCn1nc(C)c(/C=C2\CCCC3=C2OC(N)=C(C#N)C3c2c(C)nn(CC)c2C)c1C (centres undefined) |  | inconclusive: 17.7 µM [inhibitor, partial curve]
